Data as given in patent US20260053861A1, “CELL COMPOSITIONS AND METHODS OF USING THE SAME” (THE REGENTS OF THE UNIVERSITY OF CALIFORNIA, priority 2022, published 2026).

Test system: sciatic nerves of STZ treated animals
Test: Transmission electron microscopy of myelin in sciatic nerves of STZ-treated mice
Conditions: BP+STZ vs STZ

CC(NC(C)(C)C)C(=O)c1cccc(Cl)c1 (stereo not shown) [BP, Bupropion]
percentage of fibers with damaged myelin in the sciatic nerves: significantly reduced
